# In all, about 110,000 compounds went through this assay and about 40 (0.04%) were called active. This list was built around the results that the source calls inconclusive (neither active nor inactive); the mix of calls is not that of the screen. The call rests on the fitted dose curve; in most records, active means well fitted curve in the direction sought with a large enough effect in the signal ratio (not every such curve was filed as active); inconclusive means small, poorly fitted or top-dose-only effect, or a change in a side signal; inactive means flat fitted curve, though single readings scatter; the % refers to the signal ratio. Potencies of inconclusive entries are doubtful fits and often do not repeat.
# Experiment: IkB Signaling;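 on IkBa stabilization activation: 0% = basal untreated cells and 100% = reference inhibitor full response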
# Details: ABC-DLBCL IkBa-CBG/CBR dual luciferase ratio (green luciferase fused to IkBa over red control in OCI-Ly3 lymphoma cells), 4 h; IkBa stabilization activation: at 57.1 µM (top of the series), scaled: untreated 0%, proteasome inhibitor 100% unless noted
# Procedure, shortened: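 Luminescence ratio of IκBα-fused green versus native red beetle luciferase in OCI-Ly3 cells, 4 h post-doxycycline with compound; red signal alone, scaled from basal (0%) to zero light (-100%), flagged nonspecific or cytotoxic effects.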
# Potency means the concentration at half of the fitted maximal effect.
SMILES,IkBa stabilization activation,Potency
CC1=C(C)CS(=O)N(c2ccc(S(N)(=O)=O)cc2)C1 (stereo unspecified),inconclusive: 4.59% [signal activator],–
Cc1ccc(C2CCN(C(=O)Nc3ccccc3)C2)cc1 (stereo unspecified),inconclusive: 6.19% [signal inhibitor],–
CCCN(CCC)C(=O)Cn1c(=O)n(-c2cccc(OC)c2)c(=O)c2c3c(sc21)CCCC3,inconclusive: 2.02% [signal inhibitor],–
O=C(CCCCn1c(=O)c2ccccc2n(Cc2ccccc2Cl)c1=O)NCCc1ccccc1,inactive: -2.58%,–
O=C(OCc1nc2ccccc2s1)c1cccc(S(=O)(=O)N2CCOCC2)c1,inconclusive: 12.7% [signal inhibitor],–
Cc1csc2nc(COC(=O)c3cccc(NC(=O)COc4ccc(Cl)cc4)c3)cc(=O)n12,–,inconclusive: 12.6 µM [signal inhibitor]
c1ccc(Cn2nnc3c(N4CCCCCC4)ncnc32)cc1,inactive: 7.43%,–
Cc1ccc2nc(-c3ccc(Cl)c(NC(=O)COc4cccc(C)c4C)c3)oc2c1,inactive: -1.41%,–
CCn1c(=O)cc(OCC(=O)Nc2ccc(Cl)cn2)c2ccccc21,inactive: 9.12%,–
O=C(OCc1cc(Cl)ccc1OC(F)F)c1cc(S(=O)(=O)O)ccc1O,–,"inconclusive: 20 µM [signal inhibitor, partial curve]"
CCOC(=O)c1sc(NC(=O)/C=C/c2ccc(C(C)C)cc2)c(C(=O)OCC)c1C,inactive: -4.34%,–
Cc1ccc2nc(N3CCN(c4cccc(C(F)(F)F)c4)CC3)c3nnnn3c2c1,inconclusive: 1.22% [signal inhibitor],–
Cc1cc(C)c2cc(CN(Cc3cccs3)Cc3nnnn3CC3CCCO3)c(=O)[nH]c2c1 (stereo unspecified),inconclusive: 1.06% [signal inhibitor],–
CCOC(=O)c1cc(-c2ccc(N)cc2)sc1N,inactive: -0.686%,–
CCN(CC)c1ccc(NC(=O)CCS(=O)(=O)c2cc3c(cc2Cl)NC(=O)CO3)c(C)c1,inconclusive: -2.92% [signal inhibitor],–
O=C(Nc1c(C(=O)Nc2ccc3c(c2)OCCO3)cnn1-c1ccccc1Cl)c1ccco1,inconclusive: 4.41% [signal inhibitor],–
Cc1ccc(-c2cc(C(=O)NCc3ccco3)c3ccccc3n2)o1,–,"inconclusive: 25.1 µM [rising, partial curve]"
CCOC(=O)N1CCN(c2c(NCCCN(CC)Cc3ccccc3)c(=O)c2=O)CC1,inactive: 0.034%,–
CCOCCc1nn2c(=O)cc(COC(=O)CNC(=O)c3cccc(C)c3)nc2s1,inactive: 0.736%,–
CCN(C(=O)CSc1nc2ncccc2[nH]1)c1ccc(C(C)C)cc1,inconclusive: 0.805% [signal inhibitor],–
O=C(COc1ccc(Cl)cc1)Nc1nnc(S(=O)(=O)N2CCc3ccccc32)s1,inconclusive: -1.37% [signal inhibitor],–
CCOc1ccc(NC(=O)c2cnc(N3CCCC3)nc2C)cc1,inconclusive: 1.8% [signal inhibitor],–
COc1ccc(CNc2nc3c(-c4cccc(C)c4)nnn3c3ccccc23)cc1,inconclusive: 6.43% [signal inhibitor],–
CCOc1ccc(CCNC(=O)c2cn(C)c3ccc(S(=O)(=O)N4CCCCCC4)cc3c2=O)cc1OCC,inactive: 1.3%,–

SMILES,IkBa stabilization activation,Potency
Cc1nn(CC(=O)N2CCC(C)CC2)c(=O)c2cc3sccc3n12,inactive: 0.00928%,–
C=C(CC(=O)O)C(=O)O (tested in a mixture with another compound),"inactive: 0.446% [at 11.4 µM, scaled: untreated 0%, proteasome inhibitor 100%]",–
CCOC(=O)c1c(C)[nH]c(C)c1S(=O)(=O)N(C)CC(=O)N1CCN(c2ccccc2)CC1,inactive: 0.594%,–
CC(C)c1ccc(NC(=O)Cn2cc(S(=O)(=O)N3CCN(c4ccccc4F)CC3)c3ccccc3c2=O)cc1,inconclusive: 0.0244% [signal inhibitor],–
Cc1ccc(S(=O)(=O)c2nnn3c2nc(N2CCN(c4ccccc4F)CC2)c2cc(Cl)ccc23)cc1C,inactive: -1.33%,–
O=C(c1ccc2c(c1)N(Cc1cccc(F)c1)C(=O)c1ccccc1S2)N1CCOCC1,inconclusive: 2.42% [signal inhibitor],–
COc1ccc(/C=C/C(=O)Nc2ccc3nc4c(c(Nc5ccccc5OC)c3c2)CCCC4)cc1,inconclusive: -5.33% [signal inhibitor],–
c1csc(-c2nnc(-c3ccc(N4CCOCC4)cc3)o2)c1,inactive: 1.94%,–
N#Cc1c(/N=C/c2ccco2)sc2c1CCC2,inactive: 0.768%,–
CC(=O)N1c2c(cc(Br)cc2S(=O)(=O)N2CCN(c3cc(C)ccc3C)CC2)CC1C (stereo unspecified),inconclusive: 9.3% [signal inhibitor],–
Cc1ccccc1CN1C(=O)c2ccccc2S(=O)c2ccc(C(=O)NC3CCC(C)CC3)cc21 (stereo unspecified),inconclusive: 0.315% [signal inhibitor],–
COc1ccc(C2SCCN2S(=O)(=O)c2ccc(F)cc2)cc1OC (stereo unspecified),–,"inconclusive: 39.8 µM [signal inhibitor, single point]"
O=C1CC(N2CCN(C3CCc4ccccc4C3)CC2)C(=O)N1c1ccccc1 (stereo unspecified),inactive: 1.35%,–
CCc1ccc(NC(=O)c2sc3nc(C)c(Cl)c(C)c3c2NC(=O)c2ccccc2OC)cc1,inactive: -1.93%,–
CN(C)S(=O)(=O)Nc1ccc(C(=O)O)cc1,inactive: 1.24%,–
COc1cc(NC(=O)C2CCCN2S(=O)(=O)c2ccc3c(c2)CCC(=O)N3)cc(OC)c1 (stereo unspecified),inactive: 5.61%,–
N#Cc1c(-c2ccco2)c2c([nH]c1=S)CCCC2,inactive: 0.0147%,–
CC(Oc1ccc(F)cc1)C(=O)N1CCC(c2nc3ccccc3s2)CC1 (stereo unspecified),inconclusive: 2.27% [signal inhibitor],–
CC1(CC(=O)O)O[C@H]2CCCCC[C@H]2O1 (stereo partly specified) (tested in a mixture with another compound),"inactive: 0.372% [at 11.4 µM, scaled: untreated 0%, proteasome inhibitor 100%]",–
Cc1cccc(-c2nc(C#N)c(N3CCCCCC3)o2)c1,inactive: -0.233%,–
Cc1cc(C)cc(NC(=O)C(Cc2ccccc2)NS(=O)(=O)c2ccc3c(c2)c(=O)n(C)c(=O)n3C)c1 (stereo unspecified),inconclusive: 0.907% [signal inhibitor],–
COc1ccccc1OCc1ccc(C(=O)NC(C)(C)C)o1,inactive: 7.56%,–
CCCCC(=O)Nc1cccc(NC(=O)c2ccc3c(c2)OCO3)c1,inconclusive: 4.1% [signal inhibitor],–
CCOc1ccc(N2CC(c3nc4ccccc4n3CCCOc3ccccc3)CC2=O)cc1 (stereo unspecified),inconclusive: 1.65% [signal inhibitor],–

SMILES,IkBa stabilization activation,Potency
Cc1c(C(=O)NCC(c2ccc(Cl)cc2)N2CCOCC2)oc2ccccc12 (stereo unspecified),inconclusive: 3.18% [signal inhibitor],–
CCCCOC(=O)c1ccc(NC(=O)c2cc3c(=O)n4cccc(C)c4nc3s2)cc1,–,inconclusive: 10 µM [signal inhibitor]
Cc1cc2nc(-c3ccc(SCC(=O)N4CCN(C(=O)c5ccco5)CC4)nc3)[nH]c2cc1C,inconclusive: 5.24% [signal inhibitor],–
CC(C)(C)OC(=O)N1CCC(c2c(C(=O)NCCN3CCc4ccccc4C3)cnn2-c2ccc(F)cc2F)CC1,inconclusive: -0.379% [signal inhibitor],–
CCC1CCCCN1Cc1ccc(CNS(=O)(=O)c2ccc3c(c2)oc(=O)n3C)o1 (stereo unspecified),–,"inconclusive: 2.51 µM [signal inhibitor, full curve]"
Cc1ccc(NC(=O)CCn2c(=O)c3cccn3c3ccccc32)cc1C,inconclusive: -0.424% [signal inhibitor],–
CCC(=O)N1CCc2cc(Br)cc(S(=O)(=O)CCC(=O)NCCc3cccc(C)c3)c21,inactive: 2.51%,–
CC(C)c1nnc(SCC(=O)NCc2ccco2)n1C,–,"inconclusive: 25.1 µM [rising, single point]"
CCCCOc1ccc(C(=O)O)cc1,inactive: 0.741%,–
CCCC(=O)N(c1ccc(OCC)cc1)C1C=CS(=O)(=O)C1 (stereo unspecified),inactive: -0.939%,–
Cc1nc2cc(-c3cccc(Cl)c3)nn2c(N2CCN(C(=O)c3ccco3)CC2)c1C,inactive: -0.337%,–
Cc1ccccc1OCC(=O)Nc1ccc2nc(SCC(N)=O)sc2c1,inconclusive: 4.89% [signal inhibitor],–
Cc1ccc(C2CC(C(F)(F)F)n3ncc(C(=O)NCc4ccco4)c3N2)cc1 (stereo unspecified),inconclusive: 6.53% [signal inhibitor],–
CCOC(=O)c1ccc(NC(=O)Nc2ccc(OC)c(OC)c2)cc1,inconclusive: 3.81% [signal inhibitor],–
CCOC(=O)c1ccc(NCc2ccc3c(c2)OCO3)cc1,inactive: 1.82%,–
O=C(NCCOC(=O)c1ccc(S(=O)(=O)N2CCOCC2)cc1)c1cccnc1,inconclusive: 0.618% [signal activator],–
COc1ccccc1N1CCN(Cc2nnc(-c3ccccc3C)o2)CC1,inconclusive: 5.55% [signal inhibitor],–
O=S(=O)(Nc1ccc(C(F)(F)F)cc1)c1ccc2c(c1)OCCO2,–,inconclusive: 31.6 µM [signal inhibitor]
CSc1oc(-c2ccccc2)nc1S(=O)(=O)c1ccc(C)cc1,inactive: -0.849%,–
O=C(Cn1ncn2c(cc3ccccc32)c1=O)NCc1ccco1,–,"inconclusive: 31.6 µM [rising, single point]"
O=C(NCCCc1nc2ccccc2n1Cc1cccc(Cl)c1)C1CCCCC1,inconclusive: 1.45% [signal inhibitor],–
O=C(c1ccc2c(c1)N(Cc1ccc(Cl)cc1)C(=O)c1ccccc1S2=O)N1CCC(Cc2ccccc2)CC1 (stereo unspecified),inconclusive: -0.035% [signal inhibitor],–
COc1ccc(NC(=O)Cn2nc(C(F)(F)F)c3c2CCCC3)cc1OC,inconclusive: 9.68% [signal inhibitor],–
